Results on 10 molecules are retold here after article PMC9355564, “A network of cytosolic (co)chaperones promotes the biogenesis of mitochondrial signal-anchored outer membrane proteins” (eLife, 2022).

Protein sequences, listed by entry. Tags and fused reporters are not part of them. Lines headed by an entry give the natural chain unless they say otherwise; changes in a name come on top. Residues count along the entry.
UniProt P35180: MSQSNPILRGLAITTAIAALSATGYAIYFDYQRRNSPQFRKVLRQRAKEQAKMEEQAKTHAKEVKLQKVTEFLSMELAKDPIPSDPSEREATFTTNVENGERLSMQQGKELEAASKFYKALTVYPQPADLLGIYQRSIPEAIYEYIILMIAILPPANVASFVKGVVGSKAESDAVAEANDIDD
GST-Tom20(35-183): residues 35-183 of P35180
UniProt Q12329: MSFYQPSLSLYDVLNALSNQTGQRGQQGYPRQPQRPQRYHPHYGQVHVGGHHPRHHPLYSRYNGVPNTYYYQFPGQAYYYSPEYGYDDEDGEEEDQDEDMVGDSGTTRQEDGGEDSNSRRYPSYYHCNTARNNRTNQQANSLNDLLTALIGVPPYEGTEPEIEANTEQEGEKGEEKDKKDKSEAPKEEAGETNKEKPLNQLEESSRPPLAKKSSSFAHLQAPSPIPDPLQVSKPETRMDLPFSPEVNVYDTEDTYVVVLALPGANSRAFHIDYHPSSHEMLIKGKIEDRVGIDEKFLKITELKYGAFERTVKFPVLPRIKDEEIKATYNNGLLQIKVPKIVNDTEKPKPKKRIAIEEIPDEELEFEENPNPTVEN
UniProt P31539: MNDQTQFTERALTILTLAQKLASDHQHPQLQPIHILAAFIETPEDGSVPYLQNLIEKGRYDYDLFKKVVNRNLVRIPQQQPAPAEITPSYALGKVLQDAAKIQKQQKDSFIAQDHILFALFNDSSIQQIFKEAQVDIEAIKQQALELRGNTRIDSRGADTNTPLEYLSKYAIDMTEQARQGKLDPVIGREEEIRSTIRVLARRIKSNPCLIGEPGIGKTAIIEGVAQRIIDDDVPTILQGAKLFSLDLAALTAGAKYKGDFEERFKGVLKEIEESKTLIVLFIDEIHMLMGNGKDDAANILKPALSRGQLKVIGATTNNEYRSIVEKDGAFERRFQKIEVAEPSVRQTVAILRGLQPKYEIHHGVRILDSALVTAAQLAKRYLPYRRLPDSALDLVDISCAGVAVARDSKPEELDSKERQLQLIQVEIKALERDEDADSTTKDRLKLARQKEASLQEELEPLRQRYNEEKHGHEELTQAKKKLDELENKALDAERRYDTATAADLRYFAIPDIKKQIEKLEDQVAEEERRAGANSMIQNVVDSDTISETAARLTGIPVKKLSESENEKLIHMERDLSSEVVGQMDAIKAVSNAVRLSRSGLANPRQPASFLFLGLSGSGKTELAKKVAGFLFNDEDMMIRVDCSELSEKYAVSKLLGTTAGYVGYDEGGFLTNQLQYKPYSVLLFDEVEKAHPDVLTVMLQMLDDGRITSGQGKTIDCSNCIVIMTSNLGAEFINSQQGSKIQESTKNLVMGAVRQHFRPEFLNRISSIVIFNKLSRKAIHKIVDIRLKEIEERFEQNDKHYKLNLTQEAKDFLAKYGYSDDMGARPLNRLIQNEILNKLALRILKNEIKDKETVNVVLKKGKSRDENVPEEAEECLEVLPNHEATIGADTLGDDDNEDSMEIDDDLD
UniProt P25491: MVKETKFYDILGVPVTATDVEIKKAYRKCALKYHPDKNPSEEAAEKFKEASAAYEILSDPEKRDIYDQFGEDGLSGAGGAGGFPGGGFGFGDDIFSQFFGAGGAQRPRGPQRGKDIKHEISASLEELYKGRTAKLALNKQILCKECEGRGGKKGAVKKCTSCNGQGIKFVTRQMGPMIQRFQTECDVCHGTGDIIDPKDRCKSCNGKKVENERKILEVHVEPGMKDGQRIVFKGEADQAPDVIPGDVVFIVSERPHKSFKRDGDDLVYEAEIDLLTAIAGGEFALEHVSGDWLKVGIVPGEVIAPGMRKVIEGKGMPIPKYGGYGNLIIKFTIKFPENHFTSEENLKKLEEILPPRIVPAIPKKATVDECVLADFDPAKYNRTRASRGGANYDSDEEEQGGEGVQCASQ
UniProt P00375: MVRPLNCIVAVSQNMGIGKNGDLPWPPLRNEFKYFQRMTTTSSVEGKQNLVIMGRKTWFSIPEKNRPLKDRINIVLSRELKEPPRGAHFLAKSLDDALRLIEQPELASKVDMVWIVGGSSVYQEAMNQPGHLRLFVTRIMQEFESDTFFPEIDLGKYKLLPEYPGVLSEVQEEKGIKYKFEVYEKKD

Assay [1] concerns the target T1, Mcr1-3HA (full length) (S. cerevisiae) (UniProt P36060).
T1 sequence: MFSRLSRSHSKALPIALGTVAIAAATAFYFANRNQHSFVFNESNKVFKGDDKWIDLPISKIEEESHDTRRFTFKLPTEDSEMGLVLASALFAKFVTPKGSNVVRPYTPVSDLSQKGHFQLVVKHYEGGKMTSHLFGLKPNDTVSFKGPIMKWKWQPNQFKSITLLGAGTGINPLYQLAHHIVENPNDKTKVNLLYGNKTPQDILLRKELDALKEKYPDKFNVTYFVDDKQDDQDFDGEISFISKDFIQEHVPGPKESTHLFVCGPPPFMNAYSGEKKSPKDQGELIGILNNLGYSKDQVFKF
Nature of the assay: pull-down; C-terminally 3HA-tagged proteins translated in vitro in yeast extract (from WT cells, or from cells depleted of Ydj1 and Sis1), pulled down with anti-HA beads; co-purified endogenous proteins in the eluate detected by western blot. (A western blot detects proteins with antibodies after separation by electrophoresis.)

The target in assay [2] is T2, Msp1-3HA (full length) (S. cerevisiae) (UniProt P28737).
T2 sequence: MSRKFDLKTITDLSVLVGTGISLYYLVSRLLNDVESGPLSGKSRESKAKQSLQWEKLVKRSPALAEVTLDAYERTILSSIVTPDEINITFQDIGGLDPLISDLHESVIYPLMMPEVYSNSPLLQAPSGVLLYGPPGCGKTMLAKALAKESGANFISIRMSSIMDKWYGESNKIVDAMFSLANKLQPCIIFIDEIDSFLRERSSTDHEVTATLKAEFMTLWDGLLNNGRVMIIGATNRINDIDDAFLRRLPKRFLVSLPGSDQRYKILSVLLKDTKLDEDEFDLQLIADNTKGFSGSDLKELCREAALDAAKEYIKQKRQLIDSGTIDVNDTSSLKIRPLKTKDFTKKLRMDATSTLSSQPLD
The description is as above.

The target of assay [3] is Tom20-3HA (full length) (S. cerevisiae) (UniProt P35180). The assay is described as above.
Assay [4] concerns the target T3, Tom70-3HA (full length) (S. cerevisiae) (UniProt P07213).
T3 sequence: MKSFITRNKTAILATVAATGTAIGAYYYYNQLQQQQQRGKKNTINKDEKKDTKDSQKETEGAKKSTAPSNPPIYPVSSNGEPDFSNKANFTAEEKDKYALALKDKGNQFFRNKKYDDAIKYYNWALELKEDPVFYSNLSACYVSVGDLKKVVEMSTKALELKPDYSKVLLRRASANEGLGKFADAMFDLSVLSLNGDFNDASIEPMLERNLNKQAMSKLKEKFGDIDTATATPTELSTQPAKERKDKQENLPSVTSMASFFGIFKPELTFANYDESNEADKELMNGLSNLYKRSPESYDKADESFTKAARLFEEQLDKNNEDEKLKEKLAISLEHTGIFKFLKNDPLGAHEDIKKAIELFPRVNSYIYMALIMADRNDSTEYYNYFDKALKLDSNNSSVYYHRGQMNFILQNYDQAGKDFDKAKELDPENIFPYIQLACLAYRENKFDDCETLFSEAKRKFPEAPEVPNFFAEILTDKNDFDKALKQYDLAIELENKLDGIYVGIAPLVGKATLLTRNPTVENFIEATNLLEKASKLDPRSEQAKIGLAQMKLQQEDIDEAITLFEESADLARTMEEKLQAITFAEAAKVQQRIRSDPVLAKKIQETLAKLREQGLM
Described as above.

In assay [5] the target is T4, GST-Tom70(46-617) (S. cerevisiae) (UniProt P07213).
T4 sequence: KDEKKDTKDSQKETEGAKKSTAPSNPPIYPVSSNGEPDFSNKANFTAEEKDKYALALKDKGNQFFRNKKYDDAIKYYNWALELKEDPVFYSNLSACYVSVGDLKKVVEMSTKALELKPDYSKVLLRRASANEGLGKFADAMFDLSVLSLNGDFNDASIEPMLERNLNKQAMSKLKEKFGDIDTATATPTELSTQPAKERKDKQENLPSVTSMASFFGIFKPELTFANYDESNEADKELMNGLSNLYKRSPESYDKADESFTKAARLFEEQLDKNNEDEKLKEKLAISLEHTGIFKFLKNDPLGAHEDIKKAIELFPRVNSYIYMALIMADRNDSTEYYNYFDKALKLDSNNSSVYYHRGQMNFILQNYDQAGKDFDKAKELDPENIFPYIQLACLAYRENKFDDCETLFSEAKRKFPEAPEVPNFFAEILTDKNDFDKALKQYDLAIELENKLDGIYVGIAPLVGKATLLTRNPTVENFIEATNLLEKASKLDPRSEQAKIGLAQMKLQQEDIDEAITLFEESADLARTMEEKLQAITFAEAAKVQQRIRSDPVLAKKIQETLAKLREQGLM
Briefly: pull-down; yeast extract incubated with GST alone, GST-Tom20 or GST-Tom70; eluates blotted for endogenous (co)chaperones; only the target purified.

Assay [6] deals with GST-Tom20(35-183) (S. cerevisiae) (UniProt P35180). Described as above.
Assay [7] has the same target. Briefly: pull-down; purified GST, GST-Tom20 or GST-Tom70 on glutathione sepharose beads blocked with 5% BSA, mixed with cleared in vitro translation reactions (yeast extract) of HA-tagged proteins; ATP added every 30 min; 20 mM Hepes, 100 mM NaCl, 1 mM MgCl2, pH 7.25; anti-HA blot; only the target purified.
In assay [8] the target is T4, GST-Tom70(46-617) (S. cerevisiae). The assay is described as above.

These are yes or no findings as the source states them, for the method shown. Binding seen in cells or lysates may run through a third protein. Some results given as binding are weak or reduced against the parent protein; the word gives no strength. For some assays here: Tags and fused reporters may be left off the sequences shown.

Regarding Hsp42 (from UniProt Q12329 1-375), the binding entry in assay [1], in assay [2], in assay [3] and in assay [4] was “binds weakly” each time.

On to Hsp104 (from UniProt P31539 1-908), for which the binding entry in assay [5], in assay [1], in assay [2], in assay [3] and in assay [4] was “binds” throughout.

As to Ydj1 (from UniProt P25491 1-409), the binding entry in assay [6], in assay [5], in assay [1] and in assay [2] was “binds” each time.

As for DHFR-3HA (from UniProt P00375 1-187), the binding entry in assay [7] and in assay [8] was “no binding” each time.

B1: Aha1 (protein, UniProt Q12449 1-350)
chain: MVVNNPNNWHWVDKNCIGWAKEYFKQKLVGVEAGSVKDKKYAKIKSVSSIEGDCEVNQRKGKVISLFDLKITVLIEGHVDSKDGSALPFEGSINVPEVAFDSEASSYQFDISIFKETSELSEAKPLIRSELLPKLRQIFQQFGKDLLATHGNDIQVPESQVKSNYTRGNQKSSFTEIKDSASKPKKNALPSSTSTSAPVSSTNKVPQNGSGNSTSIYLEPTFNVPSSELYETFLDKQRILAWTRSAQFFNSGPKLETKEKFELFGGNVISELVSCEKDKKLVFHWKLKDWSAPFNSTIEMTFHESQEFHETKLQVKWTGIPVGEEDRVRANFEEYYVRSIKLTFGFGAVL
As to B1, the binding result is listed as “binds” in assay [6]; “binds weakly” in assay [1]; “binds weakly” in assay [2]; “binds weakly” in assay [3]; “binds weakly” in assay [4].

B2: Djp1 (protein, UniProt P40564 1-432)
chain: MVVDTEYYDLLGVSTTASSIEIKKAYRKKSIQEHPDKNPNDPTATERFQAISEAYQVLGDDDLRAKYDKYGRKEAIPQGGFEDAAEQFSVIFGGDAFASYIGELMLLKNLQKTEELNAEDEAEKEKENVETMEESPADGKTNGTTNAVDAALGNTNEKDDKNKARTTSGNLTVHDGNKKNEQVGAEAKKKKTKLEQFEEEQEVEKQKRVDQLSKTLIERLSILTESVYDDACKDSFKKKFEEEANLLKMESFGLDILHTIGDVYYEKAEIFLASQNLFGMGGIFHSMKAKGGVFMDTLRTVSAAIDAQNTMKELEKMKEASTNNEPLFDKDGNEQIKPTTEELAQQEQLLMGKVLSAAWHGSKYEITSTLRGVCKKVLEDDSVSKKTLIRRAEAMKLLGEVFKKTFRTKVEQEEAQIFEELVAEATKKKRHT
In the case of B2, the binding entry in assay [1], in assay [2], in assay [3] and in assay [4] was “binds” each time.

B3: Hch1 (protein, UniProt P53834 1-153)
chain: MVVLNPNNWHWVDKNTLPWSKDYLNGKLTSLSTVSSDGKSKIELTQVSSITGDSNVSQRKGKPICYFDLQLSMNVKVTNLDTNKDDEDDDGILADGKLEIPEFMHDESDIPILSQGFDAFDGLVRSEFVPKVVETLLKYQDDLIKEHSKDIQV
For the molecule B3, the binding entry in assay [6] and in assay [5] was “no binding” throughout.

B4: Hsp26 (protein, UniProt P15992 1-214)
chain: MSFNSPFFDFFDNINNEVDAFNRLLGEGGLRGYAPRRQLANTPAKDSTGKEVARPNNYAGALYDPRDETLDDWFDNDLSLFPSGFGFPRSVAVPVDILDHDNNYELKVVVPGVKSKKDIDIEYHQNKNQILVSGEIPSTLNEESKDKVKVKESSSGKFKRVITLPDYPGVDADNIKADYANGVLTLTVPKLKPQKDGKNHVKKIEVSSQESWGN
Turning to B4, the binding result in assay [6] is listed as “no binding”; in assay [5], “no binding”; in assay [1], “binds”; in assay [2] it was “binds”; in assay [3], “binds”; in assay [4], “binds”.

B5: Sti1 (protein, UniProt P15705 1-589)
chain: MSLTADEYKQQGNAAFTAKDYDKAIELFTKAIEVSETPNHVLYSNRSACYTSLKKFSDALNDANECVKINPSWSKGYNRLGAAHLGLGDLDEAESNYKKALELDASNKAAKEGLDQVHRTQQARQAQPDLGLTQLFADPNLIENLKKNPKTSEMMKDPQLVAKLIGYKQNPQAIGQDLFTDPRLMTIMATLMGVDLNMDDINQSNSMPKEPETSKSTEQKKDAEPQSDSTTSKENSSKAPQKEESKESEPMEVDEDDSKIEADKEKAEGNKFYKARQFDEAIEHYNKAWELHKDITYLNNRAAAEYEKGEYETAISTLNDAVEQGREMRADYKVISKSFARIGNAYHKLGDLKKTIEYYQKSLTEHRTADILTKLRNAEKELKKAEAEAYVNPEKAEEARLEGKEYFTKSDWPNAVKAYTEMIKRAPEDARGYSNRAAALAKLMSFPEAIADCNKAIEKDPNFVRAYIRKATAQIAVKEYASALETLDAARTKDAEVNNGSSAREIDQLYYKASQQRFQPGTSNETPEETYQRAMKDPEVAAIMQDPVMQSILQQAQQNPAALQEHMKNPEVFKKIQTLIAAGIIRTGR
Consider B5, for which the binding entry in assay [5] is “binds”; in assay [1], “binds weakly”; in assay [2], “binds weakly”; in assay [3] it was “binds weakly”; in assay [4] it was “binds weakly”.

B6: Sis1 (endogenous) (protein, UniProt P25294 1-352)
chain: MVKETKLYDLLGVSPSANEQELKKGYRKAALKYHPDKPTGDTEKFKEISEAFEILNDPQKREIYDQYGLEAARSGGPSFGPGGPGGAGGAGGFPGGAGGFSGGHAFSNEDAFNIFSQFFGGSSPFGGADDSGFSFSSYPSGGGAGMGGMPGGMGGMHGGMGGMPGGFRSASSSPTYPEEETVQVNLPVSLEDLFVGKKKSFKIGRKGPHGASEKTQIDIQLKPGWKAGTKITYKNQGDYNPQTGRRKTLQFVIQEKSHPNFKRDGDDLIYTLPLSFKESLLGFSKTIQTIDGRTLPLSRVQPVQPSQTSTYPGQGMPTPKNPSQRGNLIVKYKVDYPISLNDAQKRAIDENF
B6: the binding entry in assay [1], in assay [2], in assay [3] and in assay [4] was “binds” in each case.
